Data from PubChem BioAssay AID1508623 (National Center for Advancing Translational Sciences (NCATS), 2021).
In all, about 48,000 compounds went through this assay and about 450 (0.94%) were called active. Inconclusive means that the source gave no clear call. Such entries were picked first, then a sample of the others. Calls come from the whole dose curve; as a rule, active = well fitted inhibition curve with a large enough effect; inconclusive = small, poorly fitted or top-dose-only effect; inactive = no such curve, though single readings can be large or run the other way. A potency beside an inconclusive call is a rough fit, not a confirmed value.

Assay: Primary qHTS for Identification of Small Molecule Inhibitors of Huntingtin Promoter Activity; note: nearly all actives have a fitted effect of over 50% in size
Conditions: HEK293 HTT promoter firefly luciferase reporter (activity 0% = vehicle and -100% = no light), 24 h; series mostly up to 57.5 µM
Procedure, shortened: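 Firefly luciferase readout (Dual-Glo, 10 min RT) after 24 h, 37 °C compound exposure (final up to 57.5 uM) of HEK293 reporter cells cultured 24 h beforehand; PTC124 at 50 uM final as control inhibitor; activity scaled vehicle 0%, zero RLU -100%.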
Potency is the fitted concentration of half-maximal effect; tags give direction and shape of the fitted curve.

Potency, inconclusive:
O=C(Nc1ccc2nc(SCC(=O)N3CCOCC3)sc2c1)c1cccc(Cl)c1 39.8 µM [inhibitor, single point]
COc1cccc(CNC(=O)CCc2c(C)nc3c(c(C)nn3-c3ccc(C)c(C)c3)c2C)c1 31.6 µM [inhibitor, partial curve]
COc1cccc(NC(=O)CSc2nnc3scc(-c4ccc(Cl)cc4)n23)c1 39.8 µM [inhibitor, partial curve, poor fit]
COc1ccc(N(C(=O)c2ccc(OC)c(OC)c2)S(=O)(=O)c2ccc(Cl)cc2)cc1 28.2 µM [inhibitor, partial curve, poor fit]
O=C(NCCc1ccccc1)c1ccc2c(c1)N(Cc1c(F)cccc1Cl)C(=O)CS2 39.8 µM [inhibitor, single point]
CCc1ccc(NC(=O)CSc2nccn2-c2ccc(OC)cc2)cc1 39.8 µM [inhibitor, single point]
CCn1c(C(=O)NCc2ccccc2C)cc2oc3ccccc3c21 15.8 µM [inhibitor, partial curve, poor fit]
Cc1nc(-c2cccc(NC(=O)Nc3ccc([N+](=O)[O-])cc3)c2)no1 25.1 µM [inhibitor, partial curve, poor fit]
Cc1ccccc1OCCSc1nc2ccc(NC(=O)c3ccccc3)cc2s1 28.2 µM [inhibitor, single point]
CCCN1C(=O)c2[nH]nc(-c3ccccc3O)c2C1c1ccc(OCc2ccccc2)c(OC)c1 (stereo unspecified) 25.1 µM [inhibitor, single point]
CN1CCc2c(n(Cc3ccc(C(=O)NO)cc3)c3ccccc23)C1 27.3 µM [inhibitor, partial curve]
O=C(Nc1nc2n(n1)C(c1ccc(F)cc1)C=C(c1ccccc1)N2)c1ccc(Cl)cc1 (stereo unspecified) 25.1 µM [inhibitor, single point]
Cc1cc(C)cc(NC(=O)C(=O)NCC(c2cccnc2)N2CCc3ccccc3C2)c1 (stereo unspecified) 31.6 µM [inhibitor, single point]
CCc1ccccc1NC(=O)c1sc2nc3c(cc2c1N)CN(Cc1ccccc1)CC3 15.8 µM [inhibitor, partial curve, poor fit]
O=C(Cn1c(=O)nc(-c2ccccc2)c2ccccc21)NCc1ccc(Cl)cc1 1 µM [inhibitor, partial curve, poor fit]
CCc1ccc(NC(=O)CCn2nc(C)c(S(=O)(=O)N3CCCCC3)c2C)cc1 28.2 µM [inhibitor, partial curve, poor fit]
Nc1ccc(N2CCN(c3ncc(C(F)(F)F)cc3Cl)CC2)c(C(F)(F)F)c1 28.2 µM [inhibitor, partial curve]
O=C(NCc1ccc(Cl)cc1)C(=O)NCC(c1cccs1)S(=O)(=O)c1cccs1 (stereo unspecified) 39.8 µM [inhibitor, single point]
COc1ccc(Nc2cc(C(=O)NCCCN3CCN(c4ccc(OC)cc4)CC3)c3ccccc3n2)cc1 28.2 µM [inhibitor, single point]
CCCCc1nn2c(=O)cc(COC(=O)c3ccc(NC(=O)c4ccccc4C)cc3)nc2s1 39.8 µM [inhibitor, single point]
Cc1cc(F)ccc1NS(=O)(=O)c1ccc(-n2cccn2)cc1 28.2 µM [inhibitor, partial curve]
COc1cc2c(cc1OC)C(COc1ccccc1OC)N(C(=O)COc1ccc(Cl)cc1)CC2 (stereo unspecified) 22.4 µM [inhibitor, partial curve, poor fit]
COc1ccc(OC)c(CNC(=O)Cc2ccc(NC(=O)N3CCSc4ncccc43)cc2)c1 12.6 µM [inhibitor, partial curve, poor fit]
O=C(C1CCN(c2ncnc3c2nc2n3CCCCC2)CC1)N1CCN(c2cccc(Cl)c2)CC1 31.6 µM [inhibitor, single point]
C=CCc1ccccc1OCCn1c(C2CC(=O)N(Cc3ccc(F)cc3)C2)nc2ccccc21 (stereo unspecified) 39.8 µM [inhibitor, single point]
COc1ccccc1CCNC(=O)C(=O)NCC(c1cccs1)S(=O)(=O)c1ccc(F)cc1 (stereo unspecified) 39.8 µM [inhibitor, single point]
O=C(Nc1ccc(S(=O)(=O)N2CCCCC2c2cccnc2)cc1)c1ccc(F)cc1 (stereo unspecified) 25.1 µM [inhibitor, partial curve, poor fit]
CCCCNC(=O)Cn1ncc2c(C)n(Cc3cccc(Cl)c3)c(C)c2c1=O 14.1 µM [inhibitor, partial curve, poor fit]
O=C(NCc1cccs1)c1nn(-c2ccccc2F)nc1CO 15.8 µM [inhibitor, partial curve, poor fit]
CCNC(=O)c1c(NC(=O)Cc2coc3cc(C)ccc23)sc2c1CCCC2 35.5 µM [inhibitor, partial curve, poor fit]
COc1ccc(CCNS(=O)(=O)c2ccc(F)c(C(=O)Nc3ccc(Cl)cc3)c2)cc1OC 28.2 µM [inhibitor, single point]
COc1ccc(OC)c(NC(=O)C(C)n2nc(C)c3c(C)n(-c4ccccc4)nc3c2=O)c1 (stereo unspecified) 20 µM [inhibitor, partial curve, poor fit]
COc1ccc2c(c1)CCc1c(C(=O)Nc3c(C)nn(Cc4ccc(Cl)cc4)c3C)noc1-2 3.16 µM [inhibitor, full curve]
CC1(C)C(N(O)C(=O)Nc2ccc(Cl)cc2)N(c2ccc(Cl)cc2)C(=O)N1CC(=O)NN=CC=Cc1ccc([N+](=O)[O-])o1 (stereo unspecified) 27.3 µM [inhibitor, partial curve]
O=C(CCSCc1cnn(-c2ccccc2)c1-n1cccc1)NCc1ccc(Cl)cc1 14.1 µM [inhibitor, partial curve, poor fit]
Cc1ccc(NC(=O)Cn2cc(C(=O)c3cccs3)c3ccccc32)cc1C 17.8 µM [inhibitor, single point]
CC(C)Cn1c(-c2ccc(S(=O)(=O)N3CCCC3)cc2)csc1=Nc1ccccc1 15.8 µM [inhibitor, partial curve, poor fit]
O=C(Nc1ccc(Cl)cc1)Nc1ccc(Cl)c(Cl)c1 39.8 µM [inhibitor, single point]
CCOC(=O)c1cccc(Nc2nc(C(=O)OCC)nc3ccccc23)c1 39.8 µM [inhibitor, single point]
COCCCCC(=NOCCN)c1ccc(C(F)(F)F)cc1 27.3 µM [inhibitor, partial curve]
COc1ccc(S(=O)(=O)NCCS(=O)(=O)N2CCN(c3ccccc3F)CC2)cc1 39.8 µM [inhibitor, partial curve, poor fit]
CC(=O)c1ccc(N2CCN(c3ncnc4onc(-c5ccc(Cl)cc5)c34)CC2)cc1 25.1 µM [inhibitor, single point]
COC(=O)c1c(-c2ccc(Cl)cc2)noc1N1CCN(c2cccc(OC)c2)CC1 22.4 µM [inhibitor, single point]
O=C(Cc1ccc(NC(=O)N2CCCCc3ccccc32)cc1)Nc1ccccc1Br 25.1 µM [inhibitor, partial curve, poor fit]
Cc1ccccc1CN1c2ccccc2-c2nc(SCC(=O)Nc3cc(F)ccc3F)ncc2S1(=O)=O 15.8 µM [inhibitor, partial curve, poor fit]

Potency, inactive:
CCN(CC)c1ccc(NC(=O)CCS(=O)(=O)c2cc3c(cc2Cl)NC(=O)CO3)c(C)c1
COCCNC(=O)Cn1nc(C)c2c(C)n(-c3ccc(C)cc3)nc2c1=O
COc1ccc(Cn2ccn(Cc3cccc(C)c3)c(=O)c2=O)cc1
C[C@@H](O)[C@H]1C(=O)N2C(C(=O)O)=C([C@H]3CCCO3)S[C@H]12
OCCN1CCN(CC/C=C2/c3ccccc3Sc3ccc(C(F)(F)F)cc32)CC1
CCOC(=O)c1ccc(NC(=O)Cn2c(=O)cc(C)c3c(C)nn(-c4cccc(F)c4)c32)cc1
O=C(Nc1cc(C(F)(F)F)ccc1Cl)c1nc2ccccc2nc1N1CCCCC1
COc1ccc2c(C)cc(SCC(=O)Nc3nsc(-c4ccccc4C)n3)nc2c1
Cc1ccc(NC(=O)CSc2ccc(-c3cccs3)nn2)cc1Cl
Cc1ccccc1CCNC(=O)c1ccc2c(c1)nc1n2CCC(C)C1 (stereo unspecified)
CCn1c(C(=O)NCc2ccc(OC)cc2)cc2sc(Cl)cc21
COc1cccc(NC(=O)CSc2nccn2Cc2ccc3c(c2)OCO3)c1
O=C(CCn1cccn1)Nc1cccc(C(F)(F)F)c1
O=C(O)CCCC[P+](c1ccccc1)(c1ccccc1)c1ccccc1
COc1ccc(OC)c(-n2cnc3cc(C(=O)NC4CCCC4)ccc32)c1
O=C(Nc1nnc(S(=O)(=O)N2CCCC2)s1)c1ccc(F)cc1
